The supplement of paper PMC5499739
In all, about 16,000 sequences were measured (“Z-score”: median about -0.37, highest 2% from about 3.1 on). Some of the results follow.

test system: RBM10 RRM1-ZnF-RRM2 (GST-tagged construct); test: RNAcompete 7-mer binding Z-score; higher = stronger binding preference
Procedure, shortened: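 GST-tagged RBM10 constructs (20 pmol) were mixed with a designed pool of 241 399 RNAs up to 41 nt (1.5 nmol), transcribed from microarray-derived DNA templates. Mixing was in 1 ml Hepes pH 7.8 buffer with KCl, NaCl, glycerol, DTT, BSA and glutathione Sepharose beads. Binding ran 30 min at 4°C, followed by four 2-min washes at 4°C, and bound RNA was identified by microarray hybridisation. Each heptamer motif received a one-sided Z-score for enrichment across probes containing it.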

Sequence	RNAcompete 7-mer binding Z-score
UGCCCAA	-0.741
CGGUUAC	0.148
UUGCUUC	-0.785
CUCUCAC	-0.821
UUAAUGA	-0.315
AAGUCUU	-0.697
AAUGGAG	3.01
CGAAGAG	0.399
CAAGAAU	-0.344
CCAUGCG	-0.395
UGAUUAC	-0.439
AUGCUUA	-0.704
ACGAGAC	-0.0561
UACGUAA	-0.169
GGAACUA	0.304
GUUUCAC	-0.493
CUUCUUU	-0.868
AUACCGG	-0.00877
CUUUCCA	-0.814
CACCAAG	-0.358
AAGAGAU	0.385
AAAUAUA	-0.169
GAAUGAC	0.184

Sequence	RNAcompete 7-mer binding Z-score
GCCCCAU	-0.803
CUGGUUC	-0.672
ACAAAUA	-0.26
UGCGGAG	1.43
GCGUUGA	-0.0925
UUGGAUC	-0.3
UACCCAA	-0.734
GAUCGGA	0.785
UCAUACG	-0.5
CUAACGC	-0.85
UGUCCAG	-0.643
CGUCACU	-0.515
AGACCAG	-0.464
AAGCACG	-0.111
GCAGCCA	-0.296
UGACGCA	-0.107
AACUUGC	-0.737
CCGCGGA	0.144
CCGAGAC	-0.519
UUGUAAU	-0.559
GGCAUGU	0.632
GUGAUGU	0.326
GUGCAUA	0.141

Sequence	RNAcompete 7-mer binding Z-score
GUGCGGA	2.04
AAGCUGU	-0.639
UUCAGCA	-0.562
UCCUUGG	-0.307
GGUGUGU	1.42
AUUCCCC	-0.613
CCUGAAU	-0.777
AAGCUGC	-0.508
GCGGAGC	1.35
AGUGCUG	0.0495
AAUGAUG	0.261
GCCAUAU	-0.566
ACUGAAA	-0.417
AAAUUUC	-0.61
GCCUGCU	-0.992
UUAGCAC	-0.406
CAGACUG	-0.0962
GAAGUCA	-0.0889
CAGCACG	-0.0343
CAAACGU	-0.34
GUAUUUC	-0.624
AUCUAAU	-0.712
GUGGUUA	2.17

Sequence	RNAcompete 7-mer binding Z-score
UGGAGGU	3.02
GGCAUCC	-0.136
UACGACG	0.0969
AGGACGG	2
GCCGACG	-0.0343
UCGAUGG	0.971
ACAAACC	-0.617
GCCACAA	-0.643
CAGGAAU	1.22
UGCGGUC	-0.00512
GCGCAGA	0.385
AGAGGGA	2.16
GAAUGGU	2.65
CACUAUC	-0.704
CGAAUAG	0.192
UCUCCGU	-0.806
CUUACCC	-0.81
GAAAUAU	-0.00877
AUGAAGC	0.119
AUCCGGC	-0.606
CAGCGAA	0.119
UAGAAUU	-0.333
GUCCUCC	-0.643

Sequence	RNAcompete 7-mer binding Z-score
UCAGUCG	-0.195
GUGGAGC	2.47
GUCAGUA	0.294
UACUAUC	-0.723
GUUGAUG	0.88
ACAUAGG	1.48
GCCAAAC	-0.573
CUGUUAC	-0.81
CCAUGAC	-0.836
AGAUGUU	-0.267
AGGCAUC	-0.311
UGGAUCG	0.567
CGGACGG	1.23
CUCCCUG	-0.664
GACACCC	-0.686
CAAUAGA	0.476
GGACAAA	1.48
CGCCACC	-0.595
GAAGGCA	2.46
UUGUUGG	0.468
GCGCGAG	0.421
CGAUACU	-0.803
CGUCCGC	-0.748

Sequence	RNAcompete 7-mer binding Z-score
UGGUCCA	-0.162
GGCUGGC	0.417
GCGGUUC	-0.267
UUUAUUC	-0.781
CUCUGGA	-0.504
UCAACGC	-0.584
GGUCCGG	0.672
GACCAGG	0.931
GUACAGU	0.385
UGCGUCU	-0.617
UUUUCUC	-0.759
AAUGUGU	0.439
ACAAAGU	-0.067
GGAGGCG	3.13
AAUAGUC	-0.191
GAAGCUG	0.137
AAAAUAC	-0.486
CCGGUGA	0.235
AUAGCUG	-0.158
AUGGCUU	-0.027
ACGCAAG	0.0568
ACCAUGC	-0.712
ACCACCG	-0.377

Sequence	RNAcompete 7-mer binding Z-score
CCUUUUU	-0.999
CGACCAU	-0.879
UACGAGU	-0.0998
UGCUUGA	-0.686
ACUGAAC	-0.624
ACAUAGU	-0.26
AGUGCAC	-0.0124
UAGGCCG	0.224
ACUGACG	-0.165
GGUGAAA	1.83
ACACGGA	0.618
GAGUCCC	-0.439
GUAGGGG	4.66
AGGCGAU	1.12
CUAAACC	-0.694
CCCUCGA	-0.825
AAACAAC	-0.198
UACUCUA	-0.617
UGAACUG	-0.249
UGUAUCU	-0.613
UGAAAAG	0.439
AGGCUGG	0.756
CACCCUG	-0.89

Sequence	RNAcompete 7-mer binding Z-score
CAUACAC	-0.646
UGUAUGG	1.1
AGCCUAU	-0.817
ACCAUUC	-0.763
UAGCAUC	-0.544
UCUUUGC	-1
GUCUAGA	-0.497
AGCGGAU	2.6
CGUCACC	-0.533
GUUGCAG	0.439
UAAGUGA	0.206
GAAUUAA	-0.00877
UCAUAUU	-0.621
CAUGGCU	-0.304
CCAAGAG	-0.242
GGGUAAC	2.47
GGGCACC	1.05
ACUCGUG	-0.602
UUGCGAC	-0.584
AGCUUAA	-0.508
UGGUUAC	0.585
GCAUGCC	-0.559
